# Toxic doses and inconclusive results are not listed. Certain results were filed several times, with different values. Only these are listed. The source may hold further records. The values listed for one entry are repeats (runs, samples, wells, individuals or studies).
# System: BDF1 mice, P388 leukemia ip, median survival T/C
# Assay: NCI In Vivo Anticancer Drug Screen. Data for tumor model P388 Leukemia (intraperitoneal) in B6D2F1 (BDF1) mice
# Conditions: endpoint: median survival time, higher = longer survival
# Summary of the method: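 Vehicle-dosed animals serve as the reference; survival of compound-dosed, tumour-implanted mice is divided by it.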
compound,measurement,setting,value
CC1(C)N=C(N)N=C(N)N1c1ccc(OCCCOc2ccc(S(=O)(=O)F)cc2)c(Cl)c1,T/C,"dose: 18.75 mg/kg/injection, schedule: Q01DX009 (ip), vehicle: saline",120 % of control and 163 % of control
CC1OC(=O)C(C(C)C)NC(=O)C(C(C)C)OC(=O)C(C(C)C)NC(=O)C(C)OC(=O)C(C(C)C)NC(=O)C(C(C)C)OC(=O)C(C(C)C)NC(=O)C(C)OC(=O)C(C(C)C)NC(=O)C(C(C)C)OC(=O)C(C(C)C)NC1=O (stereo not drawn),T/C,"dose: 25.0 mg/kg/injection, schedule: Q04DX003 (ip), vehicle: Klucel (hydroxypropylcellulose) (HPC)",98 % of control and 178 % of control
CCN1C=C/C(=C\C=C/c2cc[n+](CC)c3ccccc23)c2ccccc21,T/C,"dose: 1.5 mg/kg/injection, schedule: Q04DX003 (ip), vehicle: saline",113 % of control and 158 % of control

# From PubChem BioAssay AID328 (DTP/NCI, 2004)
